Assay results reported in the supplement of paper PMC3334620.
The full ranking holds about 33,000 sequences; the median of “E-score (-0.5 to 0.5)” is about -0.032, and the highest 2% start at about 0.36. Some of the results follow.

target: T1, Sko1 (UniProt Q02100); assay: PBM E-score (8-mer binding enrichment) (E-score (-0.5 to 0.5)); higher = stronger / more preferred TF binding; most listed sequences are background and not binding sites; conditions: protein concentration: 200 nM; construct: GST-full length
T1 sequence: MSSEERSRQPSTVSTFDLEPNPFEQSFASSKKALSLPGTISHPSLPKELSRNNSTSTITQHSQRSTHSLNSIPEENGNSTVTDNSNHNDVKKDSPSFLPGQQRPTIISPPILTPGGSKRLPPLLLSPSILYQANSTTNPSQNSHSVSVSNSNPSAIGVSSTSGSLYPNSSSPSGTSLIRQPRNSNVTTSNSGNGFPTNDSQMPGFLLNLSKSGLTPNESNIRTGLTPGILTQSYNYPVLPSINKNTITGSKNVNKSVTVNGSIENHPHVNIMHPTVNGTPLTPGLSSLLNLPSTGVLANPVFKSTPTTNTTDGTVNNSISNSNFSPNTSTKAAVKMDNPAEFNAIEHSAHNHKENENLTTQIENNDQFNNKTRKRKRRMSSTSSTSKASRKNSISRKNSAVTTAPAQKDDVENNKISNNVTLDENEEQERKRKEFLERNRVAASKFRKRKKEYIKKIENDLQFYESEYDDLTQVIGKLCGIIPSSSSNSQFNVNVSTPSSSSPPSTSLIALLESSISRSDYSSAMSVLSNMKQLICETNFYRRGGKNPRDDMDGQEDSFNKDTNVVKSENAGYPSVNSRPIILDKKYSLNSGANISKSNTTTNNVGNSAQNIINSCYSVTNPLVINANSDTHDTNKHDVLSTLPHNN
Procedure, shortened: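 Using PURExpress in vitro transcription/translation, GST-tagged yeast transcription factors were made in full-length or DNA-binding-domain form. These were applied at about 100-200 nM to double-stranded universal all-10-mer Agilent arrays, and bound protein was detected with fluorescent anti-GST. Scans were normalised with masliner before the Universal PBM Analysis Suite assigned E-scores to ungapped eight-base words pooled with their reverse complements.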

Sequence	PBM E-score
CCTATGGC	-0.343
AGAATGGG	-0.238
GGCAGTGA	-0.125
ACTTTCGA	0.0607
GCGTACGC	0.269
AAAAGTTA	0.298
AATCGGCA	0.0691
CAAAAGAG	-0.00659
CTCACTGA	-0.0558
GGGCAGAC	-0.242
CACCGGCC	-0.179
CGATGGAC	-0.0164
AATTCAAC	0.138
GACTACGC	0.0875
ACTATCCG	0.12
CTCCGGAA	-0.19
ATATTTGG	0.228
CCTACAGG	-0.365
TCTTTCCA	0.0944
CCAGCCCG	-0.421
ATAACAAG	0.079
AAAGGTAA	0.0369
AACTGGCG	0.0329
CTACCTAG	-0.159
AAGGTAAT	0.1

Sequence	PBM E-score
CGAGGGAC	-0.328
GATGTCGA	0.0456
CTAAGCCC	-0.255
TAGGAGCA	-0.0201
AATATTTC	0.191
AGTTTGCG	0.0104
CGATCGTA	0.174
CTGCCCTA	-0.273
AAGAATGG	-0.163
ATACTCCA	0.0192
CCCGGTTA	-0.26
ACCCTGTG	-0.0965
GCAGCCAC	-0.143
CGAACTCA	-0.113
CAATCTCA	0.0473
CGGCCGCA	-0.327
AAACCAGT	-0.0849
GCGGTTCC	-0.114
AAACGCGT	0.221
AACTCCAT	-0.0023
GTGATTAA	0.263
GATTCTAC	0.0366
ACGGAATC	0.158
AAAAGTCG	-0.0404
GCACGACA	-0.0954

Sequence	PBM E-score
TCGAGAGA	-0.162
AATTGACG	0.356
CGGATACA	0.00396
CCTTAACC	-0.301
CCAGAGCA	-0.186
GATTAGGC	0.0558
ACGATTAC	0.369
CATGGCCA	-0.106
CAGTACCA	-0.111
AGATCCTG	-0.126
CCGCATCA	-0.0746
GTTACGCA	0.417
CAGTGGAA	-0.132
ATGACACA	0.307
CTTCCTCA	-0.153
AATTGATA	0.245
CCCCTCTC	-0.424
ATGATCGC	0.0857
AGCGGGAA	-0.0798
ATTCGTAA	0.433
ATCATGTA	0.235
GATACCGC	-0.117
CGTCACAA	0.388
CGAGACCA	-0.114
CAGTTAGA	-0.0644

Sequence	PBM E-score
AAGAACTC	0.095
GCCTGAGA	-0.241
ATGTCATG	0.403
TATACACA	0.225
GCAAGCAC	-0.13
TCCTATCA	-0.0566
ATTCTATA	0.183
ATACGCTG	-0.0194
CTAAGGTC	-0.0258
GGACGAGA	0.0144
CATGGGCG	-0.034
CTACAAGC	-0.0402
ACAAAATG	0.206
GGTAGCGA	-0.125
CTCGTTCC	-0.0749
GAAGAGCA	-0.108
ACGCGCAC	0.0462
CTTGCTTA	-0.192
ATCCACCA	-0.0843
CAAGAGCA	-0.0878
CCACGCAA	0.308
GAAAAGGC	-0.204
TACACCGA	-0.177
AACCCGGT	-0.265
ATATGCCA	-0.0891

Sequence	PBM E-score
TCAACAAA	0.143
AACACATA	0.256
GTGCCTGA	-0.141
ACACGGTA	-0.0135
ACAACGGT	-0.0571
AAACGATG	0.192
ATATGGGC	-0.0462
TAGCTGCA	-0.0592
CCACCGAC	-0.175
AATCCTGC	0.0867
TACAGATA	0.181
AAAGAGAT	0.0423
AGAATGAA	0.113
TAGTTGGA	-0.0545
TCGGCTAA	0.0996
AGACGGTA	-0.0761
AACCCGTT	-0.139
GCTCAGAC	-0.152
ACTCGAGT	0.0932
CACCCAGC	-0.168
AAAACGGG	0.026
AGGCAGCC	-0.208
AATTGGGG	-0.167
GAAGCTCA	-0.0454
CGCCTCCC	-0.0668

Sequence	PBM E-score
ACTACAGG	-0.116
CAGAGGGC	-0.226
ACTCGGAC	-0.131
ATGACGAA	0.488
CTACCAGC	-0.103
ACTAAGCT	0.0583
AGACTGCC	-0.103
CACCACCG	-0.248
CCGTGGGC	-0.0933
AGCCAGTC	-0.286
AGAAGCGG	-0.328
AGTATGAA	0.0617
AGTTTGAG	-0.148
GCAGTCGC	-0.164
GGCCGTGA	-0.129
ATAGGGGA	-0.197
ATATCATA	0.307
ATATGCGC	0.0277
GACGTTGC	0.313
ATGAGGCA	-0.0537
CTTATAGC	-0.0113
CATCCAAC	0.164
AGGTACCC	-0.292
AAGTCCCC	-0.279
CATAGTAG	-0.0634

Sequence	PBM E-score
CTATGAGC	-0.121
TAGCTAGA	0.00313
AAGTACGG	-0.0995
AACCCGGG	-0.241
GAGGGTGA	-0.175
CGGCACCG	-0.247
AATGCCGC	-0.268
CACGACTC	0.0715
GAACAACC	-0.0935
CAAACTTG	-0.0458
CAATGCTC	0.0911
ATTGTAAG	-0.0531
GGATCTGA	-0.128
ACCCTGAC	-0.246
ATTCGTCA	0.464
AGTATCTA	0.138
CCTTAGGC	-0.187
AGTGTGCG	-0.0849
ACGATTCC	0.0509
ATGGTGTC	-0.0613
ATGGTATC	0.0937
GTTATTGA	0.169
